# Reference: PubChem BioAssay AID463173 (ICCB-Longwood Screening Facility, Harvard Medical School, 2010)
# Screen size: about 52,000 compounds; about 1,700 (3.3%) were called active. Rule as the data show it: active = survival mostly below about 52% (no sharp cut-off); inactive = mostly above about 56%. Some of the results follow.
# Test system: Wild type
# Experiment: growth inhibition of S. aureus wild type versus tarO mutant, primary screen, teichoic acid synthesis inhibitors, RN4220, OD600 (AID 463173)
# Details: S. aureus RN4220 wild type/DeltatarO growth, OD600, 18 h, hits give low values, screened at 18.75 µg/mL (by protocol)
row,Compound,survival
1,COc1ccc(NC(=O)CC2C(=O)N(c3ccc(C)cc3)C(=O)N2Cc2ccc3c(c2)OCO3)cc1 (stereo unspecified),inactive: 133%
2,CCOC(=O)C1CCN(Cc2cn[nH]c2-c2ccc(C)cc2)CC1,inactive: 106%
3,Cc1ccccc1Cn1nnc2c(=O)[nH]c(C3CCCN(C(=O)c4ccc(F)cc4)C3)nc21 (stereo unspecified),inactive: 120%
4,COc1ccc(N2CCN(S(=O)(=O)c3ccc4c(c3)CCCN4C(C)=O)CC2)cc1,inactive: 65%
5,Nc1cc(=O)[nH]c(=S)n1-c1ccccc1,inactive: 103%
6,CCC(C)n1c(SCc2c(F)cccc2Cl)nc2ccsc2c1=O (stereo unspecified),inactive: 131%
7,CC1CCN(CCCNC(=O)c2cn(C)c3ccc(S(=O)(=O)N(C)C4CCCCC4)cc3c2=O)CC1,inactive: 136%
8,COc1cc2c(cc1OC)C(COc1ccc(C(C)C)cc1)N(C(=O)c1ccc(S(=O)(=O)N3CCCC3)cc1)CC2 (stereo unspecified),inactive: 78%
9,Cc1ccc(C)c(CN2C(=O)c3ccccc3S(=O)c3ccc(C(=O)N4CCN(c5ccccc5F)CC4)cc32)c1 (stereo unspecified),inactive: 89%
10,COc1cc(N2C(=O)CSC23C(=O)N(Cc2ccc(C)cc2)c2ccccc23)cc(OC)c1OC (stereo unspecified),inactive: 72%
11,Cc1ccc2c(c1)N(C(=O)CCC(=O)NCc1cccs1)CCO2,inactive: 82%
12,COc1ccc(Br)c(C(=O)Nc2cc3c(cc2N2CCCCC2)n(C)c(=O)c(=O)n3C)c1,inactive: 73%
13,CCc1cc(C(=O)NC(C)c2ccccc2)no1 (stereo unspecified),inactive: 71%
14,COC(=O)c1cc(NC(=O)[C@H](CCS(C)(=O)=O)N2Cc3ccccc3C2=O)cc(C(=O)OC)c1,inactive: 87%
15,CCc1ccc(-c2nc3cc(NC(=O)c4cc5ccccc5cc4OC)ccc3o2)cc1,active: 14%
16,COc1cc2c(cc1OC)C(COc1ccc(F)cc1)N(C(=O)c1ccc(S(=O)(=O)N3CCCC3)cc1)CC2 (stereo unspecified),inactive: 88%
17,COc1cc(C2CC(=O)N(Cc3ccc(F)cc3)c3ccccc3S2)cc(OC)c1OC (stereo unspecified),inactive: 72%
18,O=C(CCCn1c(=O)c2ccccc2n(Cc2ccc(F)cc2Cl)c1=O)NCCc1ccc(Cl)cc1,inactive: 88%
19,COC(=O)c1ccccc1NC(=O)c1nc(S(=O)(=O)Cc2cccc(C)c2)ncc1Cl,inactive: 73%
20,COc1ccc(NC2CC(O)C(CO)O2)cc1 (stereo unspecified),inactive: 114%
21,COC(=O)c1ccccc1NC(=O)c1ccc2nc(Cc3ccccc3)oc2c1,inactive: 75%
22,CC1CCc2c(sc3ncnc(NCCOCCO)c23)C1 (stereo unspecified),inactive: 106%

row,Compound,survival
1,Cc1ccc(-n2nc(CO)c(C(=O)NCc3cccs3)n2)cc1C,inactive: 85%
2,CC(=O)Nc1ccc(NC(=O)c2ccc(COc3ccc(Cl)cc3Cl)o2)cc1,inactive: 81%
3,Cc1cccc(NC(=O)c2c(C)cc(C)nc2SCC(=O)Nc2c(C)cc(C)cc2C)c1,inactive: 83%
4,CCOc1ccc(-c2cc(-c3nc(-c4cc(OC)c(OC)c(OC)c4)no3)[nH]n2)cc1Cl,inactive: 80%
5,COc1ccc(C)cc1NC(=O)C1CCN(S(=O)(=O)c2ccc3[nH]c4c(c3c2)CCCCC4)CC1,inactive: 74%
6,Nc1cc(=O)nc(SCC(=O)Nc2ccc(F)cc2)n1-c1ccccc1Cl,inactive: 76%
7,O=C(COc1ccc([N+](=O)[O-])cc1)NCC1(N2CCOCC2)CCCCC1,inactive: 96%
8,Cc1cc(C)cc(NC(=O)CCCN2C(=O)COc3ccc(C)cc32)c1,inactive: 77%
9,COc1ccc(CC(=O)NC2CCN(Cc3nnnn3C(C)(C)C)CC2)cc1OC,inactive: 124%
10,Oc1c(C(c2ccccc2F)N2CCCCC2)sc2nc(-c3ccco3)nn12 (stereo unspecified),inactive: 70%
11,CC(=O)c1cccc(NC(=O)CSc2nc(=O)n(Cc3cccnc3)c3c2CCC3)c1,inactive: 70%
12,CC1/C(=N/O)CC(c2ccco2)NC1c1ccco1 (stereo unspecified),inactive: 113%
13,CC(C)c1ccc(NC(=O)C2CCN(c3nc(-c4ccc(C(C)C)cc4)no3)CC2)cc1,inactive: 119%
14,CCCCc1nc2ccccc2n2c(-c3ccc(OC)cc3)c3c(=O)n(C)c(=O)n(C)c3c12,inactive: 52%
15,Cc1c(C(=O)N2CCC(C)CC2)c(S(=O)(=O)NCc2ccc(Br)cc2)c(C)n1C,inactive: 80%
16,CC(C)CC(=O)Nc1ccc(S(=O)(=O)Nc2cc3c(cc2N2CCOCC2)n(C)c(=O)c(=O)n3C)cc1,inactive: 60%
17,Cc1ccc(NC(=O)c2cn3c4c(ccc(Cl)c4c2=O)OC(C)C3)c(C)c1 (stereo unspecified),inactive: 71%
18,COc1ccc(OC)c(/C=N/c2ncn[nH]2)c1,inactive: 105%
19,O=C(CCc1cn(Cc2ccccc2Cl)c2ccccc12)NC1CCCCC1,inactive: 82%
20,COc1ccc(-n2ncc(C(=O)N3CCN(c4ncccn4)CC3)c2C2CCN(C(=O)OC(C)(C)C)CC2)cc1,inactive: 72%
21,Cc1ccccc1Nc1c(-c2ccc(Cl)s2)nc2c(C)cccn12,inactive: 69%
22,COc1ccc(CNC(=O)c2cc(-c3cccc(Cl)c3)on2)cc1,inactive: 85%

row,Compound,survival
1,CC(C)(C)OC(=O)N1CCC(c2c(C(=O)NCCCN3CCc4ccccc4C3)cnn2-c2ccccc2)CC1,inactive: 87%
2,Cc1ccc(N2CC(NC(=O)c3ccc(S(=O)(=O)N4CCCC4)cc3)CC2=O)cc1 (stereo unspecified),inactive: 66%
3,CCOc1ccccc1NC(=O)Cn1c(=O)n(CCCC(=O)NCCc2ccc(C)cc2)c(=O)c2ccccc21,inactive: 92%
4,COc1ccc(-c2c(C)c3cc(OC(=O)N4CCOCC4)ccc3oc2=O)cc1,inactive: 71%
5,COc1ccc(OC)c(NC(=O)CCc2c(C)nn(-c3ccc(N4CCCC4)nn3)c2C)c1,inactive: 132%
6,CC(C)c1ccc(NC(=O)c2ccc3c(c2)CCCN3S(C)(=O)=O)cc1,inactive: 86%
7,COc1ccc(-c2nc(C)c(CCNC(=O)C(=O)Nc3c(C)cccc3C)s2)cc1OC,inactive: 87%
8,O=C(Cn1cc(SCc2ccccc2)c2ccccc21)N1CCCCC1,inactive: 92%
9,COc1ccc(OC)c(CCNC(=O)C2CCN(c3ncnc4c3nc3n4CCCCC3)CC2)c1,inactive: 87%
10,CSc1ccc(CNC(=O)C2CCN(c3nnc(-n4cccc4CNc4ccc(C)cc4)s3)CC2)cc1,inactive: 116%
11,N#Cc1c(-n2ncnc2-c2ccc(Br)cc2)sc2c1CCCCC2,active: 2%
12,CCc1ccc(CNC(=O)CN(c2ccc(C)cc2)S(=O)(=O)N(C)C)cc1,inactive: 81%
13,CCN(CC)S(=O)(=O)c1ccc2c(c1)c(=O)c(C(=O)NCCc1ccc(OC)c(OC)c1)cn2C,inactive: 79%
14,COc1cccc(CN(C(=O)c2oc3ccc(Br)cc3c2C)C2CCS(=O)(=O)C2)c1 (stereo unspecified),inactive: 69%
15,COC(=O)CNC(c1ccccc1)c1cc(Br)ccc1NC(=O)c1ccc(Cl)cc1 (stereo unspecified),inactive: 70%
16,Cc1nc2ccn(Cc3ccccc3)c(=O)c2cc1C(=O)Nc1ccc(F)cc1Cl,inactive: 73%
17,CCC(=O)N1CCc2cc(Br)cc(S(=O)(=O)NCc3cccc(OC)c3)c21,inactive: 65%
18,Cc1coc2cc3oc(=O)c(CCC(=O)N4CCCCC4)c(C)c3cc12,inactive: 83%
19,COc1cccc(NC(=O)Cn2c(=O)n(-c3ccccc3)c(=O)c3c4c(sc32)CCCC4)c1,inactive: 112%
20,Cc1ccccc1-c1ccnc2c(-c3ccc(F)cc3)c(C)nn12,active: -13%
21,Cc1ccc(-c2cc(N)n(Cc3cccc(Cl)c3)n2)cc1,inactive: 65%
22,Cc1ccc(C)c(NC(=O)CCc2nc3cccnc3n2Cc2cccs2)c1,inactive: 88%

row,Compound,survival
1,CCN(CC)C(=O)CSc1nc(-c2ccccc2)cc(-c2ccc(OC)cc2)c1C#N,inactive: 77%
2,COc1ccc(C2Nc3ccccc3-n3c(-c4ccccc4)c4c(=O)n(C)c(=O)n(C)c4c32)cc1 (stereo unspecified),active: -3%
3,c1ccc(C2CCC(N3CCNCC3)CC2)cc1 (stereo unspecified),inactive: 113%
4,Cc1cc2nc(NC(=O)c3ccc(S(=O)(=O)N4CCOCC4)cc3)sc2cc1C,inactive: 88%
5,COc1ccccc1-c1noc(-c2ccc(NCc3ccccc3)c([N+](=O)[O-])c2)n1,inactive: 74%
6,COc1ccc(C)cc1NC(=O)CN(C)S(=O)(=O)c1ccc2c(c1)CCCN2C(C)=O,inactive: 68%
7,COCCCN1CN=C(NS(=O)(=O)c2ccc(NC(C)=O)cc2)NC1,inactive: 74%
8,CCOc1ccc(NC(=O)Nc2cccc(C)n2)cc1,inactive: 75%
9,Cc1ccc(-n2nc3c(N4CCC(C(=O)NCCc5ccccc5)CC4)nnc(C)c3c2C)cc1,inactive: 74%
10,CCC(=O)N1CCc2cc(S(=O)(=O)N3CCN(c4ccccc4F)CC3)ccc21,inactive: 82%
11,COc1cc(OC)c(NC(=O)Cn2nc(C)n3cccc3c2=O)cc1Cl,inactive: 90%
12,COc1ccc(C)cc1NC(=O)CN1C(=O)CSc2ccc(S(=O)(=O)N3CCCC3)cc21,inactive: 93%
13,CC1=C(c2cccc(Cl)c2)S(=O)(=O)NC1=NCc1ccccc1C,inactive: 122%
14,COc1ccc(N2Cc3cccc(C(=O)Nc4ccc(C)cc4)c3C2=O)cc1,inactive: 86%
15,CCOC(=O)c1sc2ccccc2c1S(=O)(=O)N1CCN(c2ccccc2F)CC1,inactive: 70%
16,COc1cc(-c2noc(-c3ccc(N4CCCC4)c([N+](=O)[O-])c3)n2)cc(OC)c1OC,inactive: 84%
17,CC(=O)N1CCc2c(sc3c2c(=O)n(Cc2ccccc2)c(=O)n3Cc2cccc(Cl)c2)C1,inactive: 116%
18,COc1ccc(-c2cn3nc(N4CCC(C(=O)NCc5cccc(Cl)c5)CC4)sc3n2)cc1,inactive: 121%
19,COC(=O)c1ccc(Nc2nc(-c3ccc(C)cc3)nc3ccccc23)cc1,active: 7%
20,CC1=Nc2cc(C(=O)NC3CCC(C)CC3)ccc2Sc2c(C)ccc(C)c21 (stereo unspecified),inactive: 84%
